Among all 220,000 compounds or so, about 5,700 (2.6%) were called active. Inconclusive results, whose numbers are uncertain, are shown with a selection of clear calls. The call rests on the fitted dose curve; in most records, active means well fitted inhibition curve with a large enough effect; inconclusive means small, poorly fitted or top-dose-only effect; inactive means no such curve, though single readings can be large or run the other way. Potencies beside an inconclusive call are fits to weak or partial responses and may not hold up.
Molecular target: Lysine-specific demethylase 5B (Homo sapiens) (UniProt Q9UGL1)
Assay: Primary screen for KDM5B Histone Demethylases FDH-coupled qHTS; further: nearly all actives have a fitted effect of over 70% in size
Details: FDH-coupled NADH fluorescence (FDH is formaldehyde dehydrogenase); series mostly up to 57.7 µM
Outline: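 qHTS format, multiple compound concentrations. Buffer 50 mM HEPES pH 7.5/0.01% Tween-20; 200 nM KDM5BΔAP final; 10 min compound preincubation; substrate-mix levels 12.5 µM peptide, 25 µM α-KG, 0.25 mM NAD⁺; 30 min RT; ΔRFU.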
Potency means the concentration at half of the fitted maximal effect; tags describe the fitted curve by direction and shape.

Sequence of UniProt Q9UGL1 (Q9UGL1 whole entry, looked up): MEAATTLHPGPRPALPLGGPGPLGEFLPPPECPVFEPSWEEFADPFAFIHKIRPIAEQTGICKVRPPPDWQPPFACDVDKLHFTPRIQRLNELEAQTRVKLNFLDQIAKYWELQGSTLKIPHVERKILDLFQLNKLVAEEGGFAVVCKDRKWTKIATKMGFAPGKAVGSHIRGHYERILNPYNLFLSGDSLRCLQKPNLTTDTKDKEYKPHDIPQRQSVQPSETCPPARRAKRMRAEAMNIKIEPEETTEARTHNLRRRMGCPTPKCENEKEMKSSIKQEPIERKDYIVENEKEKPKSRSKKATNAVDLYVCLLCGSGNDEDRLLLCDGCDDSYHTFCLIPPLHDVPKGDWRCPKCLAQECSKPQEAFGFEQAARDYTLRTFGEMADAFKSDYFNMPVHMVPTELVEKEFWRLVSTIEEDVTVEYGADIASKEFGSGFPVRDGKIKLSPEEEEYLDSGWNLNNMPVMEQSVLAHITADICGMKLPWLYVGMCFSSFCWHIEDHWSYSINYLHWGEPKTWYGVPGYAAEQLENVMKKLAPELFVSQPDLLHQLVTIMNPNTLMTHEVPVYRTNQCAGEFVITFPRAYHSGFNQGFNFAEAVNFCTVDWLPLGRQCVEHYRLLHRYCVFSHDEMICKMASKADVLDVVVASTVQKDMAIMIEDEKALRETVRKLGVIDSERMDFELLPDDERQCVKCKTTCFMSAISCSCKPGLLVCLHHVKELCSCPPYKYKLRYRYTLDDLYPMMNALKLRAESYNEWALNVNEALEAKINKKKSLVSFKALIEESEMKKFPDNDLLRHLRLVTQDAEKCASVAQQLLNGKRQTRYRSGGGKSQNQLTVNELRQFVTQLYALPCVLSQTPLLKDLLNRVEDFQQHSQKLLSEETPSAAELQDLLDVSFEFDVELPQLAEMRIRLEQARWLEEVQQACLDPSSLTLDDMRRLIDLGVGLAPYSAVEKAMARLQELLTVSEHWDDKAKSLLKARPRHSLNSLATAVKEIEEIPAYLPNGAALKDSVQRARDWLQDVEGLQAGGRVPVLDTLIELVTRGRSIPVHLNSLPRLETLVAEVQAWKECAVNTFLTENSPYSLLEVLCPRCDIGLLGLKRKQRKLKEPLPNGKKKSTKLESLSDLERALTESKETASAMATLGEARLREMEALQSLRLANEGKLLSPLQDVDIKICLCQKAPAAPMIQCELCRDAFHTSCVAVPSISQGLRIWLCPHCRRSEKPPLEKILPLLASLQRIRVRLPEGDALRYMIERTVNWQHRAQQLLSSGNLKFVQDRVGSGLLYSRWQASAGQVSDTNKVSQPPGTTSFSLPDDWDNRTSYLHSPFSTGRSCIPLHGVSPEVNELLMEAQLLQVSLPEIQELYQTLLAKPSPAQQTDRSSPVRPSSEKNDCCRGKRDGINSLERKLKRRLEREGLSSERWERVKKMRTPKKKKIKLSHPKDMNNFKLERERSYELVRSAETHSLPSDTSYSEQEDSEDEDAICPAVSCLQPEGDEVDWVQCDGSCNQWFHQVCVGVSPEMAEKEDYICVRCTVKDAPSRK

Q: `COc1cccc(C(=O)Nc2ccc(Oc3cccc(C(F)(F)F)c3)nc2)c1` was tested. Which Potency did it give?
A: The Potency was inconclusive: 2 µM [inhibitor, partial curve, poor fit].

Q: How did the Potency turn out when `COc1ccc(C(=O)NC2CCN(c3cc(-c4ccc(OC)cc4)[nH]n3)C2)cc1` (configuration not stated) was run?
A: Its Potency is inconclusive: 3.16 µM [inhibitor, full curve].

Q: `COc1ccc(-c2c(-c3ccc4ccccc4c3)[nH]c3c2c(=O)[nH]c(=O)n3C)cc1` was tested. Which Potency did it give?
A: Its Potency is inconclusive: 10 µM [inhibitor, partial curve, poor fit].

Q: How did the Potency turn out when `Cc1ccc(Sc2ccc(N3CCCC(C(=O)Nc4ccc(Br)cc4)C3)nn2)cc1` (configuration not stated) was run?
A: Its Potency is inconclusive: 14.1 µM [inhibitor, partial curve, poor fit].

Q: For `CCN(CC)c1nc2ccccc2nc1C(=O)Nc1cccc(F)c1`, which Potency is on record?
A: The Potency was inconclusive: 31.6 µM [inhibitor, single point].

Q: Which Potency does the source give for `CCn1nccc1C(=O)N1CCC2(CCCCO2)CC1` here?
A: Its Potency is “inactive”.

Q: For `Cc1cc(C)n(Cc2ccc(C(=O)N3CCC4(CC3)CCC(O)(CN(C)C)CC4)o2)n1`, which Potency is on record?
A: Its Potency is inconclusive: 14.1 µM [inhibitor, single point].

Q: Which Potency does the source give for `Cc1cc(/C=N/O)c(C)n1-c1ccncc1` here?
A: The Potency was “inactive”.

Q: Which Potency does the source give for `Cc1ccc(-n2nc(-c3c(C)nc4scc(CC(=O)N5CCOCC5)n4c3=O)cc2C)cc1` here?
A: The Potency was inconclusive: 25.1 µM [inhibitor, partial curve, poor fit].

Q: `Cc1ccc(Nc2nc(NC3CCCC3)nc3c2cnn3C)cc1C` was tested. Which Potency did it give?
A: Its Potency is inconclusive: 39.8 µM [inhibitor, single point].

Q: With `Nc1ncccc1CN1CC[C@@H]2OCC(=O)N(Cc3c[nH]c4ccccc34)[C@H]2CC1` as the molecule, how does the Potency read?
A: Its Potency is inconclusive: 22.4 µM [inhibitor, single point].

Q: For `COc1ccccc1-c1noc(-c2nnn3c2COC(c2ccc(F)cc2)C3)n1` (configuration not stated), which Potency is on record?
A: The Potency was inconclusive: 22.4 µM [inhibitor, single point].

Q: `COc1ccc2c(C)c(CC(=O)NCc3ccc4c(c3)OCO4)c(=O)oc2c1` was tested. Which Potency did it give?
A: The Potency was inconclusive: 39.8 µM [inhibitor, partial curve, poor fit].

Q: With `CCc1ccc(-n2nc(CO)c(C(=O)NC(C)c3ccc(Cl)cc3)n2)cc1` (configuration not stated) as the molecule, how does the Potency read?
A: The Potency was inconclusive: 1.58 µM [inhibitor, partial curve, poor fit].

Q: Which Potency does the source give for `COc1cccc(CNC(=O)CN2C(=O)CCc3cc(S(=O)(=O)N4CCOCC4)ccc32)c1` here?
A: Its Potency is inconclusive: 31.6 µM [inhibitor, single point].

Q: How did the Potency turn out when `CCc1noc(-c2cccn3c(CNC(=O)Cc4ccc(Cl)cc4)nnc23)n1` was run?
A: Its Potency is active: 25.1 µM.

Q: For `O=C(Nc1ccc(F)cc1F)c1nn(Cc2ccccc2)c(=O)c2ccccc12`, which Potency is on record?
A: The Potency was “inactive”.

Q: `CCC1=Nc2cc(C(=O)NCc3ccc(F)cc3)ccc2Sc2ccc(C)cc21` was tested. Which Potency did it give?
A: The Potency was inconclusive: 14.1 µM [inhibitor, partial curve, poor fit].

Q: Which Potency does the source give for `CC(C)Cc1ccc(C(=O)O)s1` here?
A: The Potency was “inactive”.

Q: How did the Potency turn out when `COCCCn1c(C)cnc1C1CCN(Cc2ccc(F)cc2F)C1` (configuration not stated) was run?
A: The Potency was inconclusive: 14.1 µM [inhibitor, partial curve, poor fit].

Q: How did the Potency turn out when `CCN(Cc1cc2cccc(C)c2[nH]c1=O)C(=O)c1ccc(C(C)(C)C)cc1` was run?
A: The Potency was “inactive”.

Q: `CCc1ccc(NC(=O)Nc2cn(C)c(=O)c3ccccc23)cc1` was tested. Which Potency did it give?
A: The Potency was inconclusive: 17.8 µM [inhibitor, partial curve, poor fit].

Q: How did the Potency turn out when `CCc1ccc(CNC(=O)Cn2ccc3cc(S(=O)(=O)N4CCCCCC4)ccc32)cc1` was run?
A: The Potency was inconclusive: 17.8 µM [inhibitor, partial curve, poor fit].

Q: With `CCc1ccc(S(=O)(=O)/N=C2\C=C(NS(=O)(=O)c3ccccc3)C(=O)c3ccccc32)cc1` as the molecule, how does the Potency read?
A: The Potency was inconclusive: 39.8 µM [inhibitor, partial curve, poor fit].

Q: For `CCCc1cc(=O)oc2c(C)c(OC(C)C(=O)NCc3ccccn3)ccc12` (configuration not stated), which Potency is on record?
A: The Potency was inconclusive: 25.1 µM [inhibitor, partial curve, poor fit].

Q: Which Potency does the source give for `Cc1ccc(C)c(N2CCN(C(=O)C3CCN(S(=O)(=O)c4cn(C)c(C)n4)CC3)CC2)c1` here?
A: The Potency was “inactive”.

Q: How did the Potency turn out when `Cc1cnc2c(S(=O)(=O)NCC(C)(C)N3CCOCC3)cccc2c1` was run?
A: The Potency was “inactive”.

Q: For `CCc1nn(CC(=O)Nc2cccc(C(C)=O)c2)c(=O)c2cc3sccc3n12`, which Potency is on record?
A: Its Potency is inconclusive: 25.1 µM [inhibitor, partial curve, poor fit].

Q: `CCS(=O)(=O)c1ncc(Cl)c(C(=O)NCc2ccc(OC)cc2)n1` was tested. Which Potency did it give?
A: The Potency was “inactive”.

Q: With `Cc1ccc(-c2cc3c(=O)n(CCNC(=O)Cc4c[nH]c5ccccc45)ccn3n2)c(C)c1` as the molecule, how does the Potency read?
A: The Potency was “inactive”.

Q: For `CC1(C)CC(=O)c2cc(C#N)c(=O)n(-c3ccc(F)cc3)c2C1`, which Potency is on record?
A: The Potency was inconclusive: 25.1 µM [inhibitor, partial curve, poor fit].

Q: For `Nc1ccc(NS(=O)(=O)c2cccc(Cl)c2Cl)cc1[N+](=O)[O-]`, which Potency is on record?
A: Its Potency is “inactive”.

Q: `O=C(NCc1ccco1)N1C[C@@H]2CN(C(=O)C3CC3)C[C@]2(C(=O)O)C1` was tested. Which Potency did it give?
A: Its Potency is inconclusive: 39.8 µM [inhibitor, single point].

Q: Which Potency does the source give for `CC(=O)N1CC[C@H](c2nc3ccc(F)cc3[nH]2)C1` here?
A: Its Potency is inconclusive: 31.6 µM [inhibitor, single point].

Q: Which Potency does the source give for `CC1(C(=O)NCc2cnccn2)CN(Cc2ccccc2)Cc2ccc(Nc3ccccc3)nc21` (configuration not stated) here?
A: The Potency was inconclusive: 35.5 µM [inhibitor, partial curve, poor fit].

Q: How did the Potency turn out when `CS(=O)(=O)NC[C@H]1OC[C@@H](NC2CCC(F)(F)CC2)[C@@H]1O` was run?
A: The Potency was “inactive”.

Q: For `CCc1ccc(N2CC(c3noc(-c4ccc(OC)c(F)c4)n3)CC2=O)cc1` (configuration not stated), which Potency is on record?
A: Its Potency is active: 31.6 µM.

Q: With `CCCCn1nc(C(=O)NCc2ccc(C(=O)O)cc2)c2ccccc2c1=O` as the molecule, how does the Potency read?
A: The Potency was “inactive”.

Q: For `CCCSc1ncc(Cl)c(C(=O)Nc2nc3ccc(C)cc3s2)n1`, which Potency is on record?
A: The Potency was inconclusive: 14.1 µM [inhibitor, partial curve, poor fit].

Q: For `COc1ccccc1-c1cc(-c2ccsc2)c2onc(C)c2n1`, which Potency is on record?
A: The Potency was active: 28.2 µM.

Q: `O=C(OCc1ccccc1)c1ccccc1C(=O)c1ccccc1` was tested. Which Potency did it give?
A: Its Potency is “inactive”.

Q: `O=C1NC(=NC2CCCCC2)C2(CCCN([S+](=O)([O-])c3cccs3)C2)N1c1cccnc1` (configuration not stated) was tested. Which Potency did it give?
A: The Potency was “inactive”.

Q: How did the Potency turn out when `O=C(CC1CCCN(c2cnn(CC3CC3)c(=O)c2)C1)N1CCN(c2ccccn2)CC1` (configuration not stated) was run?
A: Its Potency is “inactive”.

Q: With `COc1cccc(-c2ccnc(-c3nnc(C)n3Cc3ccccc3)c2)c1` as the molecule, how does the Potency read?
A: The Potency was active: 35.5 µM.

Q: For `CCN(CC)C(=O)C(Sc1nnc(-c2ccc(Cl)cc2Cl)n1N)c1ccccc1` (configuration not stated), which Potency is on record?
A: The Potency was “inactive”.

Q: `O=C1NCCN2CC3(CCN(C(=O)c4ccco4)CC3)CC12` (configuration not stated) was tested. Which Potency did it give?
A: The Potency was active: 28.2 µM.

Q: How did the Potency turn out when `CCc1cnc2c(c1SC(C)CC)c(=O)n(C)c(=O)n2C` (configuration not stated) was run?
A: Its Potency is “inactive”.

Q: How did the Potency turn out when `Cn1nnnc1SCCCNCc1cccc(OCc2ccc(F)cc2)c1` was run?
A: The Potency was inconclusive: 17.8 µM [inhibitor, partial curve, poor fit].

Q: For `COc1ccc(-c2cc(N3CCN(C(=O)Cc4ccccc4Br)CC3)n[nH]2)cc1`, which Potency is on record?
A: The Potency was inconclusive: 25.1 µM [inhibitor, single point].

Q: Which Potency does the source give for `Cc1cc(C(=O)N2CCCC(c3nc(C4CCOCC4)no3)C2)nn1C` (configuration not stated) here?
A: The Potency was “inactive”.

Q: With `S=C(NCc1ccccc1)N/N=C/c1cccc(OCCOc2ccc(Br)cc2)c1` as the molecule, how does the Potency read?
A: The Potency was “inactive”.

Q: For `O=C(NCC1(c2ccccc2)CCCC1)C(=O)Nc1cccc(Br)c1`, which Potency is on record?
A: The Potency was inconclusive: 14.1 µM [inhibitor, partial curve, poor fit].

Q: How did the Potency turn out when `Cc1cccc2nc(CSc3ccc4ccccc4n3)cc(=O)n12` was run?
A: The Potency was “inactive”.

Q: How did the Potency turn out when `NC[C@H]1O[C@@H](CO)[C@@H](O)[C@H]1N1CCN(c2ncccn2)CC1` was run?
A: Its Potency is inconclusive: 39.8 µM [inhibitor, partial curve, poor fit].

Q: Which Potency does the source give for `Cc1ccccc1CCNC(=O)C1CCN(S(=O)(=O)c2ccc3c(ccn3C)c2)CC1` here?
A: The Potency was inconclusive: 17.8 µM [inhibitor, partial curve, poor fit].

Q: With `O=C(N[C@H]1C[C@H]2C(=O)NC[C@@H](CCC(=O)N3CCCCC3)N2C1)c1ccco1` as the molecule, how does the Potency read?
A: The Potency was inconclusive: 14.1 µM [inhibitor, partial curve, poor fit].

Q: For `CCc1ccc(-n2c(=O)c3c4c(sc3n(CC(=O)c3ccc(Br)cc3)c2=O)CCC4)cc1`, which Potency is on record?
A: Its Potency is inconclusive: 5.01 µM [inhibitor, partial curve, poor fit].

Q: Which Potency does the source give for `Clc1cccc(-c2ccc(CN3CCN(C4CCNC4)CC3)o2)c1` (configuration not stated) here?
A: The Potency was inconclusive: 22.4 µM [inhibitor, single point].

Q: How did the Potency turn out when `O=C(NC1CCN(Cc2ccccc2)CC1)C1CCc2ncc(-c3ccsc3)n2C1` (configuration not stated) was run?
A: The Potency was “inactive”.

Q: `CCCCc1nc(NCCOCCO)c(C#N)c2c1CCCC2` was tested. Which Potency did it give?
A: The Potency was inconclusive: 31.6 µM [inhibitor, single point].

Q: Which Potency does the source give for `NC(=S)Nc1cccc(-c2n[nH]c(=S)o2)c1` here?
A: The Potency was inconclusive: 17.8 µM [inhibitor, single point].

Q: How did the Potency turn out when `O=C(Nc1ccc2c(c1)OCO2)c1sc(-c2ccco2)nc1-c1ccccc1` was run?
A: Its Potency is inconclusive: 25.1 µM [inhibitor, partial curve, poor fit].

Q: For `Cc1ccc(C)c(S(=O)(=O)Nc2nc3ccccc3nc2NCc2ccc3c(c2)OCO3)c1`, which Potency is on record?
A: Its Potency is “inactive”.

Q: Which Potency does the source give for `CC(C)(C)NC(=O)c1oc2ccccc2c1NC(=O)c1ccccc1F` here?
A: The Potency was inconclusive: 39.8 µM [inhibitor, single point].

Q: `Cc1ccc(S(=O)(=O)Nc2ccc3nc(-c4ccc(F)cc4)oc3c2)cc1` was tested. Which Potency did it give?
A: Its Potency is inconclusive: 31.6 µM [inhibitor, partial curve, poor fit].

Q: With `Cc1nn(-c2ccccc2)c(C)c1[C@@H]1C=C[C@@H](NC(=O)c2ccco2)C1` as the molecule, how does the Potency read?
A: Its Potency is inconclusive: 50.1 µM [inhibitor, partial curve, poor fit].

Q: Which Potency does the source give for `COc1cc(NC(=O)Cn2c(=O)ccc3cc(S(=O)(=O)N4CCCC4)ccc32)cc(OC)c1` here?
A: Its Potency is inconclusive: 35.5 µM [inhibitor, single point].

Reference: PubChem BioAssay AID1347165 (National Center for Advancing Translational Sciences (NCATS), 2019)
